Results from paper PMC8064142.
Results are given in words; binding and its absence hold for the method and conditions named. Binding seen in cells or lysates may run through a third protein. Some entries that bind do so weakly or less than the wild type. For some of these results: Sequences can lack the tags named with a protein.

Amino acid sequences for entries named in this document (tags omitted).
UniProt Q66K64: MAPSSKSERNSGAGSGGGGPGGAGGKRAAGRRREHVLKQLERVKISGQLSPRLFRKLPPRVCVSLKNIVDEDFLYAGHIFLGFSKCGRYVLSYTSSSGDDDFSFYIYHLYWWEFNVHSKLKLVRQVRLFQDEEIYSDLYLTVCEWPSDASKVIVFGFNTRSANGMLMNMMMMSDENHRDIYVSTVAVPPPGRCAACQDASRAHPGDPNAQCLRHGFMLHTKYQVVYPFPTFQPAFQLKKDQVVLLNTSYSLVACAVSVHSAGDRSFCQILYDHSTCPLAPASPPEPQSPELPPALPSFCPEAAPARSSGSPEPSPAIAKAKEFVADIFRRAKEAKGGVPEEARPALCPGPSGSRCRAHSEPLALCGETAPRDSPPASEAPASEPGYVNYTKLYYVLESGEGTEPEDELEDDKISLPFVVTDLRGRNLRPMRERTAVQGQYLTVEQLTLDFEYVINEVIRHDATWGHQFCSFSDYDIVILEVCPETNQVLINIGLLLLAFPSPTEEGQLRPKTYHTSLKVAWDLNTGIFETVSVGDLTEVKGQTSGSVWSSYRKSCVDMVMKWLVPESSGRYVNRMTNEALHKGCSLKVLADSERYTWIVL
UniProt Q13619: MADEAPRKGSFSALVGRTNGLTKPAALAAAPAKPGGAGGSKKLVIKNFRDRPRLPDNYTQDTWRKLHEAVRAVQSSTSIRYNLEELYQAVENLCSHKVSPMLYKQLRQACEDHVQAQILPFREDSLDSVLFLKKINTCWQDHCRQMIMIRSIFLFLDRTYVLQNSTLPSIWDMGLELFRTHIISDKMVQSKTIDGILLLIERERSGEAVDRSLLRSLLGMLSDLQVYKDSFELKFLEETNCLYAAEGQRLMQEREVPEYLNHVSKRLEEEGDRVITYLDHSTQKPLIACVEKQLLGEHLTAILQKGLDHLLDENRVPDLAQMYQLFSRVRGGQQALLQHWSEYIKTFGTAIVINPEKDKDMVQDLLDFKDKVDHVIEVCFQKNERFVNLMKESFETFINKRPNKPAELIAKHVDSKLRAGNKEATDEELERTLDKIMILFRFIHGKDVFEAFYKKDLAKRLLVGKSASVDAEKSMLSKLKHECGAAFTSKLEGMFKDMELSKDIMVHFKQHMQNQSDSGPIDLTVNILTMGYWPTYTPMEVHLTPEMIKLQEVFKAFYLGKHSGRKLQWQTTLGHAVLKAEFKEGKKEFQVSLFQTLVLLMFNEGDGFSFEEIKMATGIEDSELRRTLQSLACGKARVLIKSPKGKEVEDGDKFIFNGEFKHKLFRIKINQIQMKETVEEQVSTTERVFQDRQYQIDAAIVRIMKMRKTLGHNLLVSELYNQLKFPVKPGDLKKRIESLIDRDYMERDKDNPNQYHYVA
UniProt Q16531: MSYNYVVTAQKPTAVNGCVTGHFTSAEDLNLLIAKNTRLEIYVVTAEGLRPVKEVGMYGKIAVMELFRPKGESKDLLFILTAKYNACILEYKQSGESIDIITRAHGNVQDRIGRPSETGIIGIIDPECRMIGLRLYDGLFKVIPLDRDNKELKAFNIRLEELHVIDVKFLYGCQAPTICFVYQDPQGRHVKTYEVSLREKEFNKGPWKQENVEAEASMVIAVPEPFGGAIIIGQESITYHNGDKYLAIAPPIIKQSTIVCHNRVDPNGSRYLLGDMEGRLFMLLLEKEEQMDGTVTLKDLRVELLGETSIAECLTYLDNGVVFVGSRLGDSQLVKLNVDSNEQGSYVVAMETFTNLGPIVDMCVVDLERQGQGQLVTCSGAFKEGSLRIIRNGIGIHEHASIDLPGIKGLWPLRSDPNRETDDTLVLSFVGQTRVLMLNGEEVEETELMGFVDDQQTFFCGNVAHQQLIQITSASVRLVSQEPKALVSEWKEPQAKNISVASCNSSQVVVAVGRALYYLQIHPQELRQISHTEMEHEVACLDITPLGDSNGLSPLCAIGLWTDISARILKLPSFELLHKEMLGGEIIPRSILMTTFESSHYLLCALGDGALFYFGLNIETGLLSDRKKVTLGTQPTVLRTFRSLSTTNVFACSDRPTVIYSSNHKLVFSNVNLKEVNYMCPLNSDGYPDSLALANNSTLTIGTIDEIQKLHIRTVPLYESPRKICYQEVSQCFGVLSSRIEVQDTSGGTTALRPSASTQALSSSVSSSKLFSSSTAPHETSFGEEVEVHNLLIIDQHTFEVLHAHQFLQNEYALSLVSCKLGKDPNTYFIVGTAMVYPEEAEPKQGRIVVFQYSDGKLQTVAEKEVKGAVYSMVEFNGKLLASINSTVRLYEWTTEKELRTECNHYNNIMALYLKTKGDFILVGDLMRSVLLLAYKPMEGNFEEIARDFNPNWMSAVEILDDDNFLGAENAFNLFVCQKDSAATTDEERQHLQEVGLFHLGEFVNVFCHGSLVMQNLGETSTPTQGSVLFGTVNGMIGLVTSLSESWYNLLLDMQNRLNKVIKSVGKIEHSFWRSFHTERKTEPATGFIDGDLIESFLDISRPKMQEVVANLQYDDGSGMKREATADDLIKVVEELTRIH

How the values were obtained:
[1] = molecular target: endogenous DCAF15 (human (endogenous in SMMC-7721)) (UniProt Q66K64); test: co-IP; endogenous proteins of SMMC-7721 cells, 10 μM MG132 for 6 h; RIPA buffer; anti-ZEB1 or anti-DCAF15 antibody or IgG (mock IP), protein A/G beads; Western blot
Flag-CUL4A (human) = Flag-CUL4A (human) (UniProt Q13619); test: co-IP; Flag-tagged protein expressed in HEK293T cells, 10 μM MG132 for 6 h; anti-Flag M2 agarose beads; blot for endogenous ZEB1
Flag-DDB1 = Flag-DDB1 (UniProt Q16531); test: as above
[2] = molecular target: T1, Flag-CUL4B (human), Q13620; test: as above; settings: remark: other sources report otherwise
T1 chain: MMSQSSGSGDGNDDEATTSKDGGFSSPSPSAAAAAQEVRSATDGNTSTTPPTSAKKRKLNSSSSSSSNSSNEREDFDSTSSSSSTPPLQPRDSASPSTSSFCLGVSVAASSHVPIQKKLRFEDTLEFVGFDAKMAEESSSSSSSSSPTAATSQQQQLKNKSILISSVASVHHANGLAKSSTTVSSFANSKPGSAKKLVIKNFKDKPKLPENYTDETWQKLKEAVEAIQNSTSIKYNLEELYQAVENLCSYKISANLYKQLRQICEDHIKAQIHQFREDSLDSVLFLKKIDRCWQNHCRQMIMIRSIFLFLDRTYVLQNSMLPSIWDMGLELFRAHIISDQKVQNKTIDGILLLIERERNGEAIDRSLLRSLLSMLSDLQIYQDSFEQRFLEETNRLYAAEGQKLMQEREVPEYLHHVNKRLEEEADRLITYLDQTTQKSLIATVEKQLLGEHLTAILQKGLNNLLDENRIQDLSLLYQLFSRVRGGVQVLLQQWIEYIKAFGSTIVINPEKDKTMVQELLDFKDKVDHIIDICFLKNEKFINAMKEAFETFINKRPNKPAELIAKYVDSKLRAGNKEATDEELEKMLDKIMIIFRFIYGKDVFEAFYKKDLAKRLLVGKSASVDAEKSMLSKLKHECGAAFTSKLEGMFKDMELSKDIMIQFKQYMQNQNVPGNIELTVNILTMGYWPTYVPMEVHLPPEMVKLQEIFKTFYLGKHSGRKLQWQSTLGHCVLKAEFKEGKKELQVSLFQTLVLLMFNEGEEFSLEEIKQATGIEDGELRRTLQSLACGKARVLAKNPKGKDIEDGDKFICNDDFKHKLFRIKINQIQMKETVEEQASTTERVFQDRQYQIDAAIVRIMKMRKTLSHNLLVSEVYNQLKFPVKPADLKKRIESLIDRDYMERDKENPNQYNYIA

B1: endogenous ZEB1 (SMMC-7721 cells) (protein, UniProt P37275 1-1124)
chain: MADGPRCKRRKQANPRRNNVTNYNTVVETNSDSDDEDKLHIVEEESVTDAADCEGVPEDDLPTDQTVLPGRSSEREGNAKNCWEDDRKEGQEILGPEAQADEAGCTVKDDECESDAENEQNHDPNVEEFLQQQDTAVIFPEAPEEDQRQGTPEASGHDENGTPDAFSQLLTCPYCDRGYKRFTSLKEHIKYRHEKNEDNFSCSLCSYTFAYRTQLERHMTSHKSGRDQRHVTQSGCNRKFKCTECGKAFKYKHHLKEHLRIHSGEKPYECPNCKKRFSHSGSYSSHISSKKCISLIPVNGRPRTGLKTSQCSSPSLSASPGSPTRPQIRQKIENKPLQEQLSVNQIKTEPVDYEFKPIVVASGINCSTPLQNGVFTGGGPLQATSSPQGMVQAVVLPTVGLVSPISINLSDIQNVLKVAVDGNVIRQVLENNQANLASKEQETINASPIQQGGHSVISAISLPLVDQDGTTKIIINYSLEQPSQLQVVPQNLKKENPVATNSCKSEKLPEDLTVKSEKDKSFEGGVNDSTCLLCDDCPGDINALPELKHYDLKQPTQPPPLPAAEAEKPESSVSSATGDGNLSPSQPPLKNLLSLLKAYYALNAQPSAEELSKIADSVNLPLDVVKKWFEKMQAGQISVQSSEPSSPEPGKVNIPAKNNDQPQSANANEPQDSTVNLQSPLKMTNSPVLPVGSTTNGSRSSTPSPSPLNLSSSRNTQGYLYTAEGAQEEPQVEPLDLSLPKQQGELLERSTITSVYQNSVYSVQEEPLNLSCAKKEPQKDSCVTDSEPVVNVIPPSANPINIAIPTVTAQLPTIVAIADQNSVPCLRALAANKQTILIPQVAYTYSTTVSPAVQEPPLKVIQPNGNQDERQDTSSEGVSNVEDQNDSDSTPPKKKMRKTENGMYACDLCDKIFQKSSSLLRHKYEHTGKRPHECGICKKAFKHKHHLIEHMRLHSGEKPYQCDKCGKRFSHSGSYSQHMNHRYSYCKREAEERDSTEQEEAGPEILSNEHVGARASPSQGDSDERESLTREEDEDSEKEEEEEDKEMEELQEEKECEKPQGDEEEEEEEEEVEEEEVEEAENEGEEAKTEGLMKDDRAESQASSLGQKVGESSEQVSEEKTNEA
- binding [1]: binds

B2: endogenous ZEB1 (HEK293T cells) (protein, UniProt P37275 1-1124)
chain: MADGPRCKRRKQANPRRNNVTNYNTVVETNSDSDDEDKLHIVEEESVTDAADCEGVPEDDLPTDQTVLPGRSSEREGNAKNCWEDDRKEGQEILGPEAQADEAGCTVKDDECESDAENEQNHDPNVEEFLQQQDTAVIFPEAPEEDQRQGTPEASGHDENGTPDAFSQLLTCPYCDRGYKRFTSLKEHIKYRHEKNEDNFSCSLCSYTFAYRTQLERHMTSHKSGRDQRHVTQSGCNRKFKCTECGKAFKYKHHLKEHLRIHSGEKPYECPNCKKRFSHSGSYSSHISSKKCISLIPVNGRPRTGLKTSQCSSPSLSASPGSPTRPQIRQKIENKPLQEQLSVNQIKTEPVDYEFKPIVVASGINCSTPLQNGVFTGGGPLQATSSPQGMVQAVVLPTVGLVSPISINLSDIQNVLKVAVDGNVIRQVLENNQANLASKEQETINASPIQQGGHSVISAISLPLVDQDGTTKIIINYSLEQPSQLQVVPQNLKKENPVATNSCKSEKLPEDLTVKSEKDKSFEGGVNDSTCLLCDDCPGDINALPELKHYDLKQPTQPPPLPAAEAEKPESSVSSATGDGNLSPSQPPLKNLLSLLKAYYALNAQPSAEELSKIADSVNLPLDVVKKWFEKMQAGQISVQSSEPSSPEPGKVNIPAKNNDQPQSANANEPQDSTVNLQSPLKMTNSPVLPVGSTTNGSRSSTPSPSPLNLSSSRNTQGYLYTAEGAQEEPQVEPLDLSLPKQQGELLERSTITSVYQNSVYSVQEEPLNLSCAKKEPQKDSCVTDSEPVVNVIPPSANPINIAIPTVTAQLPTIVAIADQNSVPCLRALAANKQTILIPQVAYTYSTTVSPAVQEPPLKVIQPNGNQDERQDTSSEGVSNVEDQNDSDSTPPKKKMRKTENGMYACDLCDKIFQKSSSLLRHKYEHTGKRPHECGICKKAFKHKHHLIEHMRLHSGEKPYQCDKCGKRFSHSGSYSQHMNHRYSYCKREAEERDSTEQEEAGPEILSNEHVGARASPSQGDSDERESLTREEDEDSEKEEEEEDKEMEELQEEKECEKPQGDEEEEEEEEEVEEEEVEEAENEGEEAKTEGLMKDDRAESQASSLGQKVGESSEQVSEEKTNEA
- binding (Flag-CUL4A (human)): no binding
- binding (Flag-DDB1): no binding

B3: endogenous ZEB1 (HEK293T cells), P37275 1-1124 (protein)
chain: MADGPRCKRRKQANPRRNNVTNYNTVVETNSDSDDEDKLHIVEEESVTDAADCEGVPEDDLPTDQTVLPGRSSEREGNAKNCWEDDRKEGQEILGPEAQADEAGCTVKDDECESDAENEQNHDPNVEEFLQQQDTAVIFPEAPEEDQRQGTPEASGHDENGTPDAFSQLLTCPYCDRGYKRFTSLKEHIKYRHEKNEDNFSCSLCSYTFAYRTQLERHMTSHKSGRDQRHVTQSGCNRKFKCTECGKAFKYKHHLKEHLRIHSGEKPYECPNCKKRFSHSGSYSSHISSKKCISLIPVNGRPRTGLKTSQCSSPSLSASPGSPTRPQIRQKIENKPLQEQLSVNQIKTEPVDYEFKPIVVASGINCSTPLQNGVFTGGGPLQATSSPQGMVQAVVLPTVGLVSPISINLSDIQNVLKVAVDGNVIRQVLENNQANLASKEQETINASPIQQGGHSVISAISLPLVDQDGTTKIIINYSLEQPSQLQVVPQNLKKENPVATNSCKSEKLPEDLTVKSEKDKSFEGGVNDSTCLLCDDCPGDINALPELKHYDLKQPTQPPPLPAAEAEKPESSVSSATGDGNLSPSQPPLKNLLSLLKAYYALNAQPSAEELSKIADSVNLPLDVVKKWFEKMQAGQISVQSSEPSSPEPGKVNIPAKNNDQPQSANANEPQDSTVNLQSPLKMTNSPVLPVGSTTNGSRSSTPSPSPLNLSSSRNTQGYLYTAEGAQEEPQVEPLDLSLPKQQGELLERSTITSVYQNSVYSVQEEPLNLSCAKKEPQKDSCVTDSEPVVNVIPPSANPINIAIPTVTAQLPTIVAIADQNSVPCLRALAANKQTILIPQVAYTYSTTVSPAVQEPPLKVIQPNGNQDERQDTSSEGVSNVEDQNDSDSTPPKKKMRKTENGMYACDLCDKIFQKSSSLLRHKYEHTGKRPHECGICKKAFKHKHHLIEHMRLHSGEKPYQCDKCGKRFSHSGSYSQHMNHRYSYCKREAEERDSTEQEEAGPEILSNEHVGARASPSQGDSDERESLTREEDEDSEKEEEEEDKEMEELQEEKECEKPQGDEEEEEEEEEVEEEEVEEAENEGEEAKTEGLMKDDRAESQASSLGQKVGESSEQVSEEKTNEA
- binding [2]: no binding
